Reference: article PMC4336329 (PLoS ONE, 2015)
Hit rate of the full screen: of about 310,000 compounds, about 14,000 (4.5%) showed an effect of 50% or more. The effect is printed as a negative number. The list shows a part of the results.

What follows are compounds tested against human ether-à-go-go-related gene (hERG) potassium channel (human, UniProt Q12809) (assay: primary screen, population patch clamp on CHO cells stably expressing hERG).
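Note: peak tail current of the secondary pulse compared with the same well before compound.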

human ether-à-go-go-related gene (hERG) potassium channel, sequence (Q12809 whole entry, looked up): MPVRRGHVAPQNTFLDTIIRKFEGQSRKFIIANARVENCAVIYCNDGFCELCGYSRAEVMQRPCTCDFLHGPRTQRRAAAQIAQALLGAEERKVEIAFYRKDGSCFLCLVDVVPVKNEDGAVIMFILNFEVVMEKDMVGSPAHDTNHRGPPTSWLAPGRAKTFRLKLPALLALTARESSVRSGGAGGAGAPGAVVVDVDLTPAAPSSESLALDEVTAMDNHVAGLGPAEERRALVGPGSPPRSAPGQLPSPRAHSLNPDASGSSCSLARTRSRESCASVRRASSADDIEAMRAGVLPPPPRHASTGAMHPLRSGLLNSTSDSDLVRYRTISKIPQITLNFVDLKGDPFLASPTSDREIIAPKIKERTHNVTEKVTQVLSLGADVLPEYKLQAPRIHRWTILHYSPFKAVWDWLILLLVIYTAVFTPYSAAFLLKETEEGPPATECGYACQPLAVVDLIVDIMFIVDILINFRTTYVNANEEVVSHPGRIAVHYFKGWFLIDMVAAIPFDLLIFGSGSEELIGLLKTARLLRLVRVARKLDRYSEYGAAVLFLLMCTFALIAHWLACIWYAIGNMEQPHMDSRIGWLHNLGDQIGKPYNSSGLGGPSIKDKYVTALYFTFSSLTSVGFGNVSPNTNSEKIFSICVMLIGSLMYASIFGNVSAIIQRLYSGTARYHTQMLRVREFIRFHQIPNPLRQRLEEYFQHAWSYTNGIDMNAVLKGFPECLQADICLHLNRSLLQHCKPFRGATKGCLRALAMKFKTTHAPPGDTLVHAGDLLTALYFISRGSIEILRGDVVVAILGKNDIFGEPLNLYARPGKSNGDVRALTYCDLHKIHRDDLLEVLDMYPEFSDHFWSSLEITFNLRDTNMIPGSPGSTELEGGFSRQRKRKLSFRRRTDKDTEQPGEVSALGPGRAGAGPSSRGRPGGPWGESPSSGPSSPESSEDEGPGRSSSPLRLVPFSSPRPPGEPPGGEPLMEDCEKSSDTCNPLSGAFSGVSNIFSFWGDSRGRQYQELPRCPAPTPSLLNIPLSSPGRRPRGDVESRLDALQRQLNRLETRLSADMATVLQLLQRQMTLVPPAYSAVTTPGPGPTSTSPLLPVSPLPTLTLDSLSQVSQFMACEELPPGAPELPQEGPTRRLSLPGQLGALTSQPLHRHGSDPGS

| SMILES | hERG current change (%, negative = inhibition) at 10uM |
| --- | --- |
| Cc1ccc(-c2nn(C)c(=O)c3ccccc23)cc1CO | -2.66% |
| CC(NC(=O)NNC(=O)c1ccncc1)(C(F)(F)F)C(F)(F)F | -1.64% |
| Cc1ccc(-c2cc(C(=O)Nc3c(C)n(C)n(-c4ccccc4)c3=O)[nH]n2)c(O)c1 | 9.59% |
| Cc1cccnc1NC(=O)c1cccc(S(=O)(=O)NCc2ccccc2)c1 | -14.9% |
| CCC(Oc1ccccc1)C(=O)Nc1ccc(S(=O)(=O)N2CCOCC2)cc1 (stereo not drawn) | -28.2% |
| Cc1cc(C(=O)CSc2nc3ccc(Cl)cc3[nH]2)c(C)n1C | -7% |
| CN(C(=O)CCCN1C(=O)c2cccc3cccc(c23)C1=O)c1ccccc1 | -31.1% |
| Fc1ccccc1CSc1nnc2ccc(-c3ccncc3)nn12 | -43.1% |
| COC(=O)C(CCSC)NC(=O)Cn1ncc2c(=O)oc3ccccc3c21 (stereo not drawn) | -2.24% |
| COc1ccc(Nc2nc(Nc3ccc(OC)cc3)nc(-n3[nH]c(=O)c(C)c3C)n2)cc1 | -10.1% |
| O=C(Nc1ccc2c(c1)OCO2)C1CC(c2ccccc2Cl)=NO1 (stereo not drawn) | -12.7% |
| N#C/C(=C\c1ccccc1OCc1ccc(C(=O)O)cc1)c1ccccc1 | 15.2% |
| COc1ccc(C(=O)NC2CC2)cc1OC1CCN(Cc2ccccc2)CC1 | -81.6% |
| C=CCSc1nc2sc3c(c2c(=O)n1CC=C)CCc1ccccc1-3 | 11.9% |
| O=C(NCCN1CCOCC1)c1ccc(CS(=O)c2ccccc2Cl)o1 (stereo not drawn) | -0.923% |
| O=C1C2CCCN2C(=S)N1c1ccc(Cl)cc1 (stereo not drawn) | 8.29% |
| CC(C)(C)S(=O)(=O)Cc1nc(-c2ccc(Cl)c(Cl)c2)cs1 | 11.6% |
| CCOC(=O)N1CCc2c(sc(N)c2C#N)C1 | 4.3% |
| Fc1ccc(OCCCCCCN2CCCC2)cc1 | -9.37% |
| Cc1ccccc1NC(=S)NCC1CCC(CNC(=S)Nc2ccccc2C)CC1 (stereo not drawn) | 10.6% |
| O=C(CCNC(=O)c1ccc(Br)cc1)NCC1COc2ccccc2O1 (stereo not drawn) | -5.67% |
| COc1cccc(NC(=O)CN(C)C(=O)CSC(=S)N2CCCC2)c1 | -3.01% |
| O=c1c2ccccc2n(Cc2ccc(F)cc2)c(=O)n1C1CCCC1 | 8.16% |

| SMILES | hERG current change (%, negative = inhibition) at 10uM |
| --- | --- |
| CCn1nnnc1NCc1ccc(OCc2ccc(F)cc2Cl)c(OC)c1 | -10.8% |
| CCOC(=O)c1cc(-c2ccc3c(c2)OCCO3)nc2c1c(C)nn2CCC#N | 3.85% |
| CCOc1ccc(-c2cc(C(=O)NN3CCN(C)CC3)c3cc(Cl)ccc3n2)cc1 | 22.5% |
| O=C(Cn1cnc2ccccc2c1=O)NCC1COc2ccccc2O1 (stereo not drawn) | -5.88% |
| CC(=O)c1ccc(Nc2cc(C)nc3c(C)cc(C)cc23)cc1 | -45.7% |
| O=c1c2c(nc3cc(-c4ccc(Br)cc4)[nH]n13)CCCC2 | -2.69% |
| CCCn1c(O)c(N=NC(=O)CNC(=O)Cc2ccc(OC)cc2)c2ccccc21 | 25.4% |
| O=C(Cc1ccc(Cl)cc1)N1CCN(c2ccccc2)CC1 | -12.2% |
| CCOC(=O)c1c(N2C(=O)C3C4C=CC(C4)C3C2=O)sc2c1CCC(C)C2 (stereo not drawn) | 0.634% |
| COc1ccc(CCN2C(=S)N(c3ccccc3)C(=O)C2CC(=O)O)cc1OC (stereo not drawn) | 18.5% |
| CC1=C(C(=O)OC(C)C)C(c2cccc([N+](=O)[O-])c2)n2c(cc(=O)[nH]c2=S)N1 (stereo not drawn) | 8.73% |
| CC(C)n1cc(/C=C2/SC(=O)N(CC(=O)N3CCCC3)C2=O)c2ccccc21 | 12.1% |
| Cc1cccn2cc(CCNS(=O)(=O)c3ccc([N+](=O)[O-])cc3)nc12 | -22.7% |
| Cc1cc(Cl)c(Cl)cc1S(=O)(=O)NCCCn1ccnc1 | -26.4% |
| COCC(O)CNc1ccccc1 (stereo not drawn) | 16.1% |
| CC(=O)O[C@]1(C(C)=O)CC[C@H]2[C@@H]3C=C(C)C4=CC(=O)CC[C@@H]4[C@H]3CC[C@@]21C | -41.1% |
| CC1CC(C)(C)NC(=S)N1CCC(=O)NCc1ccc(F)cc1 (stereo not drawn) | 12.7% |
| CC(/C=C/c1ccco1)=N/NC(=O)CNc1ccccc1C | -7.19% |
| Nc1nnc(-c2ccc(Cl)cc2Cl)s1 | 35.7% |
| COC(=O)C1=C(C)N(Cc2ccc3c(c2)OCO3)C(=O)C1 | 7.16% |
| Nc1cc(-c2ccc(Br)cc2)nc2cc(-c3ccccc3)nn12 | 12.6% |
| Oc1ccc(N=Cc2sc3ccccc3c2Cl)cc1 | 1.33% |
